Data from PubChem BioAssay (NCATS).
“And” between values parts separate entries of the source, which are not always exact repeats. Equal values may be shown once. The shares of active, inactive and inconclusive entries below differ from those in the screen. For some of these results: Where the call is inconclusive, the potency comes from a doubtful curve fit. The source made the active and inactive calls. Unless noted, calls follow the shape of the dose curve; as a rule, active = well fitted curve in the direction sought with a large enough effect; inconclusive = small, poorly fitted or top-dose-only effect, or another doubt; inactive = no such curve, though single readings can be large; an effect the other way counts as inactive or inconclusive.

What was measured:
[1] = P-glycoprotein substrates identified in KB-8-5-11 adenocarcinoma cell line, qHTS therapeutic library screen (AID 1346987); also: potency is read from the fitted curve at half-maximal effect; nearly all actives have a fitted effect of over 65% in size
In short: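 Human cervical adenocarcinoma KB-8-5-11 cells, selected in colchicine to over-express P-gp and assayed without it, were exposed for 72 h to titrated compounds. An ATP-based luminescent viability signal gave AC50.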

[2] = qHTS of pediatric cancer cell lines to identify multiple opportunities for drug repurposing: Primary screen for BT-37 cells (AID 1347094); also: potency is read from the fitted curve at half-maximal effect
In short: (§1)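 Viability was measured as metabolically active cells after 48 hours of treatment, read by CellTiter-Glo luminescence. Compounds were tested at multiple final concentrations, giving concentration-response curves.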

[3] = qHTS of pediatric cancer cell lines to identify multiple opportunities for drug repurposing: Primary screen for U-2 OS cells (AID 1347096); also: potency is read from the fitted curve at half-maximal effect; nearly all actives have a fitted effect of over 50% in size
In short: (§2)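 Viability after 48 h compound treatment at 37C, 500-1,000 cells/well, read as ATP luminescence with CellTiter-Glo. Primary screens used 11-point (MIPE, 0.78 nM-46 µM) or 8-point (NPC, 0.59 nM-46 µM) final concentrations; follow-up screens used 11-point dilutions.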

[4] = qHTS of pediatric cancer cell lines to identify multiple opportunities for drug repurposing: Primary screen for BT-12 cells (AID 1347101); also: potency is read from the fitted curve at half-maximal effect; nearly all actives have a fitted effect of over 25% in size
In short: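 Cells (500-1,000/well) rested 5 h, then received compounds for 48 h; metabolically active cells were measured by CellTiter-Glo luminescence. Final concentrations spanned up to 46 µM (MIPE, 11-point) or 0.59 nM-46 µM (NPC, 8-point) in primary screens, 11-point in follow-ups.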

[5] = qHTS of pediatric cancer cell lines to identify multiple opportunities for drug repurposing: Primary screen for RD cells (AID 1347104); details: RD rhabdomyosarcoma viability, CellTiter-Glo luminescence, 48 h; activity change, negative = cytotoxic: at 46 µM (top of the series); also: potency is read from the fitted curve at half-maximal effect; nearly all actives have a fitted effect of over 55% in size
In short: as §1

[6] = qHTS of pediatric cancer cell lines to identify multiple opportunities for drug repurposing: Primary screen for control Hh wild type fibroblast cells (AID 1347106); also: potency is read from the fitted curve at half-maximal effect; nearly all actives have a fitted effect of over 55% in size
In short: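 Cells (500-1,000/well) in growth media were settled 5 h at 37 degrees C, then given compounds for 48 h. Viability was read as CellTiter-Glo luminescence. Primary runs used MIPE at 11 points (0.78 nM-46 µM) and NPC at 8 points (0.59 nM-46 µM); follow-ups used 11 points.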

[7] = qHTS of pediatric cancer cell lines to identify multiple opportunities for drug repurposing: Primary screen for Rh30 cells (AID 1347107); also: potency is read from the fitted curve at half-maximal effect; nearly all actives have a fitted effect of over 75% in size
In short: as §2

[8] = qHTS of pediatric cancer cell lines to identify multiple opportunities for drug repurposing: Confirmatory screen for NB1643 cells (AID 1347109); also: potency is read from the fitted curve at half-maximal effect; nearly all actives have a fitted effect of over 45% in size
In short: as §2

[9] = qHTS of pediatric cancer cell lines to identify multiple opportunities for drug repurposing: Confirmatory screen for A673 cells (AID 1347110);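 also: potency is read from the fitted curve at half-maximal effect; cells exposed to compound for 48 h before the viability read; nearly all actives have a fitted effect of over 65% in size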
In short: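 Cells plated at 500-1,000/well were treated five hours later with multi-point dilutions up to 46 µM final. After two days, CellTiter-Glo was added and luminescence read.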

[10] = qHTS of pediatric cancer cell lines to identify multiple opportunities for drug repurposing: Confirmatory screen for BT-12 cells (AID 1347112); also: potency is read from the fitted curve at half-maximal effect; nearly all actives have a fitted effect of over 55% in size
In short: as §2

[11] = qHTS of pediatric cancer cell lines to identify multiple opportunities for drug repurposing: Confirmatory screen for DAOY cells (AID 1347114); also: potency is read from the fitted curve at half-maximal effect; nearly all actives have a fitted effect of over 65% in size
In short: (§3)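 Viability measured as metabolically active cells via CellTiter-Glo luminescence following 48 hours of compound exposure, 11-point dilutions in confirmatory testing. 500-1,000 cells/well plated 5 hours before dosing; controls were DMSO and 2.3 µM bortezomib.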

[12] = qHTS of pediatric cancer cell lines to identify multiple opportunities for drug repurposing: Confirmatory screen for NB-EBc1 cells (AID 1347115); details: NB-EBc1 neuroblastoma cells, viability (cytotoxicity); activity change, negative = cytotoxic: at 45.9 µM (top of the series);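 also: cells exposed to compound for 48 h before the viability read; % is scaled to controls: 0 for no effect and ±100 for the full control effect; nearly all actives have a fitted effect of over 45% in size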
In short: as §2

[13] = qHTS of pediatric cancer cell lines to identify multiple opportunities for drug repurposing: Confirmatory screen for SJ-GBM2 cells (AID 1347116); also: potency is read from the fitted curve at half-maximal effect; nearly all actives have a fitted effect of over 60% in size
In short: as §3

[14] = qHTS of pediatric cancer cell lines to identify multiple opportunities for drug repurposing: Confirmatory screen for control Hh wild type fibroblast cells (AID 1347121); also: potency is read from the fitted curve at half-maximal effect; nearly all actives have a fitted effect of over 70% in size
In short: as §2

[15] = qHTS of pediatric cancer cell lines to identify multiple opportunities for drug repurposing: Confirmatory screen for RD cells (AID 1347124); details: RD rhabdomyosarcoma cell viability; activity change, negative = cytotoxic: at 45.9 µM (top of the series);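 also: potency is read from the fitted curve at half-maximal effect; cells exposed to compound for 48 h before viability readout; nearly all actives have a fitted effect of over 65% in size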
In short: as §2

[16] = qHTS of pediatric cancer cell lines to identify multiple opportunities for drug repurposing: Confirmatory screen for Saos-2 cells (AID 1347127); also: potency is read from the fitted curve at half-maximal effect; nearly all actives have a fitted effect of over 60% in size
In short: as §2

[17] = qHTS of pediatric cancer cell lines to identify multiple opportunities for drug repurposing: Confirmatory screen for SK-N-SH cells (AID 1347129);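 also: potency is read from the fitted curve at half-maximal effect; cells exposed to compound for 48 h before viability read; nearly all actives have a fitted effect of over 60% in size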
In short: as §2

[18] = test system: Zika virus NS2B-NS3 protease (linked construct); experiment: Primary screen NINDS Rhodamine qHTS for Zika virus inhibitors (AID 1347160); details: activity change, negative = inhibition: at 57.1 µM (top of the series) unless noted; also: % is scaled to controls: 0 for no effect and ±100 for the full control effect; nearly all actives have a fitted effect of over 55% in size
In short: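 Rhodamine110-peptide cleavage (1.5 µM substrate) by 25 nM linked NS2B-NS3 enzyme at pH 8.0 (Tris, Tween 20), after 15 min RT preincubation with compounds; 15-min fluorescence change normalized to controls and Hill-fitted.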

[19] = qHTS to identify inhibitors of the type 1 interferon - major histocompatibility complex class I in skeletal muscle: primary screen against the NCATS Mechanism Interrogation Plate v5.0 (MIPE) Libary (AID 1347411); details: iHSKM cells + IFN-b, HiBiT-tagged MHC-I luminescence, 24 h; activity change, negative = inhibition: at 45.8 µM (top of the series)
In short: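 IFN-beta-driven (4 ng/ml) HLA-B-HiBit expression in CRISPR-tagged C25cl48 myoblasts; compounds 11-pt, 1:3, max 46 uM, 24 hr exposure; lytic NanoLuc complementation luminescence.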

[20] = target: Cytochrome P450 2D6 (Homo sapiens) (UniProt P10635); experiment: Cytochrome P450 family 2 subfamily D member 6 (CYP2D6) small molecule antagonists: luciferase biochemical (cell-free) qHTS assay (AID 1645840; active = well fitted curve in the direction sought with a large enough effect in the repeat runs; inconclusive = weak or mixed curves; inactive = no such curve, though single readings can be large; an effect the other way counts as inactive or inconclusive)
In short: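 P450-Glo CYP2D6 system: proluciferin substrate converted by enzyme to luciferin, read by luminescence proportional to activity. Enzyme-substrate mix with compound 10 min at room temperature, then NADPH regeneration 1 h before detection reagent.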

[21] = target: Cytochrome P450 2C9 (Homo sapiens) (UniProt P11712); experiment: Cytochrome P450 family 2 subfamily C member 9 (CYP2C9) small molecule antagonists: luciferase biochemical (cell-free) qHTS assay (AID 1645842; active = well fitted curve in the direction sought with a large enough effect in the repeat runs; inconclusive = weak or mixed curves; inactive = no such curve, though single readings can be large; an effect the other way counts as inactive or inconclusive)
In short: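 P450-Glo CYP2C9 system: proluciferin substrate with enzyme in mix containing 0.4% BSA, 10 min at room temperature, then NADPH regeneration solution added and incubated 1 h at 37C. Detection reagent stopped reaction; luminescence read after 20 min as RLU.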

[22] = Quantitative High-Throughput drug screen in 47 multiple myeloma cell lines against the NCATS MIPE library collection: FR4_PLB cell viability assay (AID 1918924; also: potency is read from the fitted curve at half-maximal effect; nearly all actives have a fitted effect of over 35% in size)
In short: (§4)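 Steps: seed 500 cells per well; pin-transfer MIPE 4.0 library; incubate 48 h at 37C, 5% CO2, humidified; add CellTiter-Glo, 5 min room temperature; read luminescence.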

[23] = Quantitative High-Throughput drug screen in 47 multiple myeloma cell lines against the NCATS MIPE library collection: EJM_DSMZ cell viability assay (AID 1918926; also: potency is read from the fitted curve at half-maximal effect; nearly all actives have a fitted effect of over 30% in size)
In short: as §4

[24] = Quantitative High-Throughput drug screen in 47 multiple myeloma cell lines against the NCATS MIPE library collection: ARP1_JJKsccF8 cell viability assay (AID 1918928; also: potency is read from the fitted curve at half-maximal effect; nearly all actives have a fitted effect of over 40% in size)
In short: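 CellTiter-Glo luminescence after 48 h exposure gives viability, scaled between DMSO-only (100%) and media-only (0%) controls. Library compounds are pinned onto 500 myeloma cells per well, incubated at 37C with 5% CO2.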

[25] = Quantitative High-Throughput drug screen in 47 multiple myeloma cell lines against the NCATS MIPE library collection: ARD_JJKsccE7 cell viability assay (AID 1918929; also: potency is read from the fitted curve at half-maximal effect); details: ARD myeloma cell line viability, CellTiter-Glo, 48 h; viability: at 45.8 µM (top of the series)
In short: as §4

[26] = Quantitative High-Throughput drug screen in 47 multiple myeloma cell lines against the NCATS MIPE library collection: Karpas417_ECACC cell viability assay (AID 1918961); details: Karpas417 myeloma viability, CellTiter-Glo ATP luminescence, 48 h; viability (% of DMSO): at 45.8 µM (top of the series); also: potency is read from the fitted curve at half-maximal effect
In short: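 CellTiter-Glo luminescence (ATP) after 48 h compound exposure, 37C/5% CO2; 500 cells/well; MIPE 4.0 approved/investigational drugs pinned in; DMSO = 100%, media only = 0% viability.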

[27] = Quantitative High-Throughput drug screen in 47 multiple myeloma cell lines against the NCATS MIPE library collection: JIM1_ECACC cell viability assay (AID 1918964; also: potency is read from the fitted curve at half-maximal effect)
In short: as §4

[28] = Quantitative High-Throughput drug screen in 47 multiple myeloma cell lines against the NCATS MIPE library collection: KMS12BM_JCRB cell viability assay (AID 1918971); also: potency is read from the fitted curve at half-maximal effect; nearly all actives have a fitted effect of over 35% in size
In short: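 Relative luminescence from CellTiter-Glo served as the viability signal, referenced to DMSO-treated (100%) and cell-free medium (0%) controls. Treatment lasted 48 hours at 37C with 500 cells per well.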
Tags tell the direction and shape of the fitted curve.

Chain of UniProt P11712 (P11712 whole entry, looked up): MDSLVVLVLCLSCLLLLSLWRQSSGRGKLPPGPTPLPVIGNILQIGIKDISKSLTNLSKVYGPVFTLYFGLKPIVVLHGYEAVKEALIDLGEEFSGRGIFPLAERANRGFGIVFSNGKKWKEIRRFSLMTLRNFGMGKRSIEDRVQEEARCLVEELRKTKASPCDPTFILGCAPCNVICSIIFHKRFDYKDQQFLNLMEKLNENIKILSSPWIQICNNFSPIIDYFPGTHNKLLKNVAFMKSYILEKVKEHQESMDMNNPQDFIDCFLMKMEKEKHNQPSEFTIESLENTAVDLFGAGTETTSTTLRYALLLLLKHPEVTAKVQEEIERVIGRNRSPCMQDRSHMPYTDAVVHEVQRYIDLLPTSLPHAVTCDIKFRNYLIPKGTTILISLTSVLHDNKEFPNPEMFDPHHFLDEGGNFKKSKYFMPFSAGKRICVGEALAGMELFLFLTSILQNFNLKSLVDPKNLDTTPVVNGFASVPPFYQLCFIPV
Chain of UniProt P10635 (P10635 whole entry, looked up): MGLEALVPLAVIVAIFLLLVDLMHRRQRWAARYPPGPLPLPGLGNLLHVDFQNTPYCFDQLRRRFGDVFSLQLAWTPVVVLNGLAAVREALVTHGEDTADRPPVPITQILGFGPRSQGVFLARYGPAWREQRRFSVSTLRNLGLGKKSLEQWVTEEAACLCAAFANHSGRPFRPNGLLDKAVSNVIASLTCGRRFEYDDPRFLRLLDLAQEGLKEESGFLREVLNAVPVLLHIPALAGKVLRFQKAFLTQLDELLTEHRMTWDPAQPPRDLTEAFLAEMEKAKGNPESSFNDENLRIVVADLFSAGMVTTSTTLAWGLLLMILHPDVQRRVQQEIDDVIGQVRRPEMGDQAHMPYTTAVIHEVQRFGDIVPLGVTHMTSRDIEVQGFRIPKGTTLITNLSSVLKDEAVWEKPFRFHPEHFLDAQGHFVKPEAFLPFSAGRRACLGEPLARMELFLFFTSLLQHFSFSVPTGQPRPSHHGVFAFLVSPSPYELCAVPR

In the case of CC(=O)Nc1nc(C)c(-c2ccc(Cl)c(S(=O)(=O)NCCO)c2)s1, the Potency [1] is reported as inconclusive: 3.72 µM [inhibitor, full curve] and inconclusive: 20.6 µM [inhibitor, partial curve], the Potency [2] is reported as active: 15.3 µM and the Potency [3] is reported as inconclusive: 11.8 µM [cytotoxic, partial curve]. For the same molecule, the Potency [4] was inconclusive: 19.3 µM [cytotoxic, partial curve], the Potency [5] was active: 4.18 µM and the Potency [6] was inconclusive: 0.743 µM [cytotoxic, full curve]. The Potency [7] was inconclusive: 5.9 µM [cytotoxic, partial curve], the Potency [8] was active: 16.5 µM and the Potency [9] was inconclusive: 10.4 µM [cytotoxic, partial curve]. For the same molecule, the Potency [10] was inconclusive: 23.3 µM [cytotoxic, partial curve, poor fit], the Potency [11] was inconclusive: 16.5 µM [cytotoxic, partial curve] and the activity change, negative = cytotoxic [12] was inconclusive: -37.1% [cytotoxic]. The Potency [13] was inconclusive: 29.3 µM [cytotoxic, single point], the Potency [14] was inconclusive: 18.5 µM [cytotoxic, partial curve, poor fit] and the Potency [15] was inconclusive: 26.1 µM [cytotoxic, single point]. The Potency [16] was active: 16.5 µM, the Potency [17] was inconclusive: 11.8 µM [cytotoxic, single point] and the Potency [18] was “inactive”. For the same molecule, the Potency [19] was inconclusive: 6.58 µM [inhibitor, partial curve], the Potency [20] was inconclusive: 37.9 µM [inhibitor, partial curve, poor fit] and the Potency [21] was inconclusive: 19 µM [inhibitor, partial curve, poor fit]. The Potency [22] was active: 13.2 µM, the Potency [23] was active: 11.8 µM and the Potency [24] was inconclusive: 1.05 µM [cytotoxic, full curve]. For the same molecule, the Potency [25] was active: 0.418 µM, the Potency [26] was active: 0.132 µM and the Potency [27] was active: 1.18 µM. The Potency [28] was active: 18.7 µM.
